According to the RNAGym collection of RNA variant scans (doi:10.1101/gad.245936.114):
Variants at the floor of the assay are shown more often than the library holds them.

B1: tRNA (parent)
chain: CUCUCGGUAGCCAAGUUGGUUUAAGGCGCAAGACUUUAAUUUAUCACUACGAAAUCUUGAGAUCGGGCGUUCGACUCGCCCCCGGGAGAUUUUUUCCUCGAGCAA

Variants of: B1
Experiment: nonsense suppression (GFP-seq) (ratio to wild type); higher = more function; SUP4oc tRNA, yeast GFP reporter sort-seq
Procedure, shortened: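 Yeast carrying genome-integrated SUP4oc tRNA variants from a library with ~3% random mutations were grown in raffinose/galactose medium with 80 mg/L adenine. Each strain also carried a galactose-driven GFP ochre reporter and RFP. Cells were sorted into GFP/RFP bins, and each bin was Illumina-sequenced (phred ≥30). Nonsense suppression (GFPSEQ) is the bin median GFP/RFP, weighted by each variant's estimated cell share per bin, relative to wild-type SUP4oc; variants needed ≥100 reads and ≥30 cells.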

First: A24G A62U G65A
Second: A23G G73A
The nonsense suppression of the first is lower: at most 0.026 for the first, 0.0291 for the second.

A23G G73C and A24C C80A cannot be ordered by nonsense suppression: at most 0.026 for the first, at most 0.026 for the second.

A24G G59U G65A and A24C A62C cannot be ordered by nonsense suppression: at most 0.026 for the first, at most 0.026 for the second.

A24C C56U G78C and A23G U55C U58A cannot be ordered by nonsense suppression: at most 0.026 for the first, at most 0.026 for the second.

A24G U76A and A24C C29G A54G cannot be ordered by nonsense suppression: at most 0.026 for the first, at most 0.026 for the second.

A24U C34G U58G G59U C83A and A24U A31C U70C G73A cannot be ordered by nonsense suppression: at most 0.026 for the first, at most 0.026 for the second.

G25A G32U A74G and A24C A33G C64G G69U cannot be ordered by nonsense suppression: at most 0.026 for the first, at most 0.026 for the second.

G25A G78A and G25A G59U G61U A62U cannot be ordered by nonsense suppression: at most 0.026 for the first, at most 0.026 for the second.

A24C G25U A31G and A24G C79G G86C cannot be ordered by nonsense suppression: at most 0.026 for the first, at most 0.026 for the second.

A24G C68U and A24G G28A A87G cannot be ordered by nonsense suppression: at most 0.026 for the first, at most 0.026 for the second.

A23G G32C A60U and A24C G26A U58C G66A C79U cannot be ordered by nonsense suppression: at most 0.026 for the first, at most 0.026 for the second.

A24G C72G G78A and A24G G66U C83A cannot be ordered by nonsense suppression: at most 0.026 for the first, at most 0.026 for the second.

G25A G26A A30G A31U C77G and G25A G26A A30G A31U C77U cannot be ordered by nonsense suppression: at most 0.026 for the first, at most 0.026 for the second.

A24G U35A and A24G U35G cannot be ordered by nonsense suppression: at most 0.026 for the first, at most 0.026 for the second.

A23G C72G and A24U C34A G84C cannot be ordered by nonsense suppression: at most 0.026 for the first, at most 0.026 for the second.

A24C G28A C29A and A23U G65A cannot be ordered by nonsense suppression: at most 0.026 for the first, at most 0.026 for the second.

A23U G65C and A24C U57C U58G G61U C72U cannot be ordered by nonsense suppression: at most 0.026 for the first, at most 0.026 for the second.

Going from G25A G26U C56G to G25C A33C A89U, the nonsense suppression falls from 0.0585 to at most 0.026.

G25A U70G C77U and A24G A54G cannot be ordered by nonsense suppression: at most 0.026 for the first, at most 0.026 for the second.

Compared with A24U G84A, G25A U57C is lower in nonsense suppression: 0.0448 for the first, at most 0.026 for the second.

G25A U57G and A24U A33C cannot be ordered by nonsense suppression: at most 0.026 for the first, at most 0.026 for the second.

First: A24U A33G
Second: A23U U57A C64A U70A
The nonsense suppression of the first is higher: 0.117 for the first, at most 0.026 for the second.

A23U G69U and A24C G26A A30U C80U C81G cannot be ordered by nonsense suppression: at most 0.026 for the first, at most 0.026 for the second.

G25A G73C A87G and G25A G67A cannot be ordered by nonsense suppression: at most 0.026 for the first, at most 0.026 for the second.

A23U A62U C79G and A23G U63G G65C U71A cannot be ordered by nonsense suppression: at most 0.026 for the first, at most 0.026 for the second.

A24U C83A and A23G G32A cannot be ordered by nonsense suppression: at most 0.026 for the first, at most 0.026 for the second.

G25A C79G and G25A G32A U57G U58G A62U G88C cannot be ordered by nonsense suppression: at most 0.026 for the first, at most 0.026 for the second.

A23U A74C and A23U G25C C34A U55C cannot be ordered by nonsense suppression: at most 0.026 for the first, at most 0.026 for the second.

A24U C68U A74G and A24C U63C A87G cannot be ordered by nonsense suppression: at most 0.026 for the first, at most 0.026 for the second.

G25A G69C and A23U A33U A60C G88A cannot be ordered by nonsense suppression: at most 0.026 for the first, at most 0.026 for the second.

A23U A60G U63A C81U and A23U C64A cannot be ordered by nonsense suppression: at most 0.026 for the first, at most 0.026 for the second.

A23U C64U G66C A87U and A24G A31C A87U cannot be ordered by nonsense suppression: at most 0.026 for the first, at most 0.026 for the second.

Going from A24U G85A A87G to A24U A30G, the nonsense suppression falls from 0.215 to 0.148.

A24U G69C and A24G U57G G84U A87U cannot be ordered by nonsense suppression: at most 0.026 for the first, at most 0.026 for the second.

First: G25C A33G U58A U70G U71C
Second: A23G U63A
The nonsense suppression of the first is lower: at most 0.026 for the first, 0.0418 for the second.

A24C A31U A89U and A24U G59U G67A cannot be ordered by nonsense suppression: at most 0.026 for the first, at most 0.026 for the second.

G25A C75U and A24G G65C G85A cannot be ordered by nonsense suppression: at most 0.026 for the first, at most 0.026 for the second.

A24G A33G G66U and G25A C29G G73C cannot be ordered by nonsense suppression: at most 0.026 for the first, at most 0.026 for the second.

A23U A31U U58C G66A and A24C C34G A54C A60C cannot be ordered by nonsense suppression: at most 0.026 for the first, at most 0.026 for the second.

A24G A33C C77G and A24C C34G U63G U76C cannot be ordered by nonsense suppression: at most 0.026 for the first, at most 0.026 for the second.

A24C G59A and A24C G59C cannot be ordered by nonsense suppression: at most 0.026 for the first, at most 0.026 for the second.

G25A C68U and G25A G66A cannot be ordered by nonsense suppression: at most 0.026 for the first, at most 0.026 for the second.

A23U A30C C56U and A24C A30G A31C U76C cannot be ordered by nonsense suppression: at most 0.026 for the first, at most 0.026 for the second.

First: A24C G25A
Second: A24G C29U
The nonsense suppression of the first is lower: at most 0.026 for the first, 0.0384 for the second.

A24G C29G and A23G G32U U76G cannot be ordered by nonsense suppression: at most 0.026 for the first, at most 0.026 for the second.

First: A24G A60U
Second: A24G A60G
The nonsense suppression of the first is lower: at most 0.026 for the first, 0.0307 for the second.

G25C A31C and G25C A31U cannot be ordered by nonsense suppression: at most 0.026 for the first, at most 0.026 for the second.

A24G U57C A60G C75U and A24G C34U cannot be ordered by nonsense suppression: at most 0.026 for the first, at most 0.026 for the second.

A23U C56A C75A and G25A C29U G59U G61U cannot be ordered by nonsense suppression: at most 0.026 for the first, at most 0.026 for the second.

A24C G65U C68G G86U and A24G G32A A87U cannot be ordered by nonsense suppression: at most 0.026 for the first, at most 0.026 for the second.

A24C C29G C64G G65U C75G and A24U U76C C77A G85C A89C cannot be ordered by nonsense suppression: at most 0.026 for the first, at most 0.026 for the second.

Compared with A24C G84A, A24G C29A G66U is lower in nonsense suppression: 0.478 for the first, at most 0.026 for the second.

First: A23U G84U G86U
Second: A24G C75U
The nonsense suppression of the first is lower: at most 0.026 for the first, 0.185 for the second.

A23U A30G C75U and A24U G66C cannot be ordered by nonsense suppression: at most 0.026 for the first, at most 0.026 for the second.

A24C C27U U58C and A24U A30C C64A cannot be ordered by nonsense suppression: at most 0.026 for the first, at most 0.026 for the second.

G25A A33C G61U G73C and A24U C29G U57G G73C cannot be ordered by nonsense suppression: at most 0.026 for the first, at most 0.026 for the second.

A24C G25U C56G A60U and A24C A30C G66U C77A G86A cannot be ordered by nonsense suppression: at most 0.026 for the first, at most 0.026 for the second.

A23U G73C C77U and A23U G67A A89U cannot be ordered by nonsense suppression: at most 0.026 for the first, at most 0.026 for the second.

A24C A33U C72U A74C and A23G U70G cannot be ordered by nonsense suppression: at most 0.026 for the first, at most 0.026 for the second.

A23U C72U and A24C A33G G67U C75A cannot be ordered by nonsense suppression: at most 0.026 for the first, at most 0.026 for the second.

A23U A87G and A24G A31U cannot be ordered by nonsense suppression: at most 0.026 for the first, at most 0.026 for the second.

G25C A33G and A24G A30C G32A G59A cannot be ordered by nonsense suppression: at most 0.026 for the first, at most 0.026 for the second.

A24G C79G and A24G C79A cannot be ordered by nonsense suppression: at most 0.026 for the first, at most 0.026 for the second.

Going from A23G U70C U71G to A23G G78U, the nonsense suppression rises from at most 0.026 to 0.0956.

A24G U57C U70A G85C and G25A G59C U63C cannot be ordered by nonsense suppression: at most 0.026 for the first, at most 0.026 for the second.

A23U G65C C72A and A24G A54G G67A cannot be ordered by nonsense suppression: at most 0.026 for the first, at most 0.026 for the second.

A24U G67U and A24U G67C cannot be ordered by nonsense suppression: at most 0.026 for the first, at most 0.026 for the second.

A23U A30C A60U G88C and A23U A33G G73C cannot be ordered by nonsense suppression: at most 0.026 for the first, at most 0.026 for the second.

A23U U70G and A23G G67U cannot be ordered by nonsense suppression: at most 0.026 for the first, at most 0.026 for the second.

A23G G67C and A23U C29A U57G cannot be ordered by nonsense suppression: at most 0.026 for the first, at most 0.026 for the second.

A23U C34U G67C and G25C A54C cannot be ordered by nonsense suppression: at most 0.026 for the first, at most 0.026 for the second.

Going from A23U A33G G59A to A24C U58C, the nonsense suppression rises from at most 0.026 to 0.034.

A24G C72G C75U and A24C G69A cannot be ordered by nonsense suppression: at most 0.026 for the first, at most 0.026 for the second.

A24C A33U G59U and A23U U57A cannot be ordered by nonsense suppression: at most 0.026 for the first, at most 0.026 for the second.

A23G G84A and A24C G26A A60U cannot be ordered by nonsense suppression: at most 0.026 for the first, at most 0.026 for the second.

A23U A33U and G25C A31U C82G cannot be ordered by nonsense suppression: at most 0.026 for the first, at most 0.026 for the second.

A24G C79U G86A and A24G C72U C75U cannot be ordered by nonsense suppression: at most 0.026 for the first, at most 0.026 for the second.

A24U A33G A54C and A23G G84U G86U cannot be ordered by nonsense suppression: at most 0.026 for the first, at most 0.026 for the second.

A24U A62C and G25A A60G G65A C82A cannot be ordered by nonsense suppression: at most 0.026 for the first, at most 0.026 for the second.

First: A23U C29U
Second: G25A U57G U63G
The nonsense suppression of the first is higher: 0.112 for the first, at most 0.026 for the second.

A24C C29G U76A and A24C G25C C75U cannot be ordered by nonsense suppression: at most 0.026 for the first, at most 0.026 for the second.

A24G G32A U55A C79A and A24U U35G U70A cannot be ordered by nonsense suppression: at most 0.026 for the first, at most 0.026 for the second.

A24U G65C A74G C82G G85A and A23G U55A cannot be ordered by nonsense suppression: at most 0.026 for the first, at most 0.026 for the second.

A23G U55C showed a nonsense suppression of 0.0273.
